# In the supplement of paper PMC8728848:
# The list shows a part of the results.
# B1: OrysaEULS2 (Oryza sativa) (protein)
# chain: MVYCRANPNYAMTARNGAVVLAPANPKDEYQHWIKDMRWSTSIKDEEGYPAFALVNKATGQAIKHSLGQSHPVRLVPYNPEVMDESVLWTESRDVGNGFRCIRMVNNIYLNFDAFHGDKYHGGVRDGTDIVLWKWCEGDNQRWKIQPYYILEQKLISEEDLNSAVDHHHHHH
# Experiments:
# Experiment in all cases: glycan array binding signal (z-score within array); higher = stronger binding
# Conditions in all cases: glycan notation: IUPAC condensed, linker removed
# [1] = target: Fuc(a1-2)Gal
# How it was run: (§1)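 The Consortium for Functional Glycomics database supplied 3228 glycan arrays, of which those lacking an available protein sequence were dropped. The binding signal, a within-array Z-score, was averaged across arrays of the same protein sequence and across linkers. Negative scores can be read as non-binding.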
# [2] = target: Fuc(a1-2)Gal(b1-3)GalNAc
# How it was run: as §1
# [3] = target: Fuc(a1-2)Gal(b1-3)GalNAc(a1-3)[Fuc(a1-2)]Gal(b1-4)Glc
# How it was run: as §1
# [4] = target: Fuc(a1-2)Gal(b1-3)GalNAc(a1-3)[Fuc(a1-2)]Gal(b1-4)GlcNAc
# How it was run: as §1
# [5] = target: Fuc(a1-2)Gal(b1-3)GalNAc(b1-3)Gal
# How it was run: as §1
# [6] = target: Fuc(a1-2)Gal(b1-3)GalNAc(b1-3)Gal(a1-4)Gal(b1-4)Glc
# How it was run: as §1
# [7] = target: Fuc(a1-2)Gal(b1-3)GalNAc(b1-4)[Neu5Ac(a2-3)]Gal(b1-4)Glc
# How it was run: as §1
# [8] = target: Fuc(a1-2)Gal(b1-3)GlcNAc
# How it was run: as §1
# [9] = target: Fuc(a1-2)Gal(b1-3)GlcNAc(b1-2)Man(a1-3)[Fuc(a1-2)Gal(b1-3)GlcNAc(b1-2)Man(a1-6)]Man(b1-4)GlcNAc(b1-4)GlcNAc
# How it was run: as §1
# [10] = target: Fuc(a1-2)Gal(b1-3)GlcNAc(b1-2)Man(a1-3)[Fuc(a1-2)Gal(b1-3)GlcNAc(b1-2)Man(a1-6)]Man(b1-4)GlcNAc(b1-4)[Fuc(a1-6)]GlcNAc
# How it was run: as §1
# [11] = target: Fuc(a1-2)Gal(b1-3)GlcNAc(b1-3)Gal(b1-4)Glc
# How it was run: as §1
# [12] = target: Fuc(a1-2)Gal(b1-3)GlcNAc(b1-3)GalNAc
# How it was run: as §1
# [13] = target: Fuc(a1-2)Gal(b1-3)GlcNAc(b1-3)[Fuc(a1-2)Gal(b1-3)GlcNAc(b1-6)]GalNAc
# How it was run: as §1
# [14] = target: Fuc(a1-2)Gal(b1-3)GlcNAc(b1-3)[Fuc(a1-3)[Gal(b1-4)]GlcNAc(b1-6)]Gal(b1-4)Glc
# How it was run: as §1
# [15] = target: Fuc(a1-2)Gal(b1-3)GlcNAc(b1-3)[Gal(b1-4)GlcNAc(b1-6)]Gal(b1-4)Glc
# How it was run: as §1
# [16] = target: Fuc(a1-2)Gal(b1-3)GlcNAc(b1-3)[Neu5Ac(a2-6)Gal(b1-4)GlcNAc(b1-6)]Gal(b1-4)Glc
# How it was run: as §1
# [17] = target: Fuc(a1-2)Gal(b1-3)GlcNAc6S
# How it was run: as §1
# [18] = target: Fuc(a1-2)Gal(b1-3)[Fuc(a1-4)]GlcNAc
# How it was run: as §1
# [19] = target: Fuc(a1-2)Gal(b1-3)[Fuc(a1-4)]GlcNAc(b1-2)Man(a1-3)[Fuc(a1-2)Gal(b1-3)[Fuc(a1-4)]GlcNAc(b1-2)Man(a1-3)]Man(b1-4)GlcNAc(b1-4)GlcNAc
# How it was run: as §1
# [20] = target: Fuc(a1-2)Gal(b1-3)[Fuc(a1-4)]GlcNAc(b1-2)Man(a1-3)[Fuc(a1-2)Gal(b1-3)[Fuc(a1-4)]GlcNAc(b1-2)Man(a1-6)]Man(b1-4)GlcNAc(b1-4)GlcNAc
# How it was run: as §1
# [21] = target: Fuc(a1-2)Gal(b1-3)[Fuc(a1-4)]GlcNAc(b1-2)Man(a1-3)[Fuc(a1-2)Gal(b1-3)[Fuc(a1-4)]GlcNAc(b1-2)Man(a1-6)]Man(b1-4)GlcNAc(b1-4)[Fuc(a1-6)]GlcNAc(b1-4)[Fuc(a1-6)]GlcNAc
# How it was run: as §1
# [22] = target: Fuc(a1-2)Gal(b1-3)[Fuc(a1-4)]GlcNAc(b1-2)Man(a1-6)[Fuc(a1-2)Gal(b1-3)[Fuc(a1-4)]GlcNAc(b1-2)Man(a1-3)]Man(b1-4)GlcNAc(b1-4)[Fuc(a1-6)]GlcNAc
# How it was run: as §1
# [23] = target: Fuc(a1-2)Gal(b1-3)[Fuc(a1-4)]GlcNAc(b1-3)[Fuc(a1-3)[Gal(b1-4)]GlcNAc(b1-6)]Gal(b1-4)Glc
# How it was run: as §1
# [24] = target: Fuc(a1-2)Gal(b1-3)[Fuc(a1-4)]GlcNAc(b1-3)[Gal(b1-4)GlcNAc(b1-6)]Gal(b1-4)Glc
# How it was run: as §1
# [25] = target: Fuc(a1-2)Gal(b1-4)Fuc(a1-3)]GlcNAc(b1-2)Man(a1-3)[Fuc(a1-2)Gal(b1-4)[Fuc(a1-3)]GlcNAc(b1-2)Man(a1-6)]Man(b1-4)GlcNAc(b1-4)GlcNAc
# How it was run: as §1
# [26] = target: Fuc(a1-2)Gal(b1-4)Glc
# How it was run: as §1
# [27] = target: Fuc(a1-2)Gal(b1-4)Glc6S
# How it was run: as §1
# [28] = target: Fuc(a1-2)Gal(b1-4)GlcNAc
# How it was run: as §1
# [29] = target: Fuc(a1-2)Gal(b1-4)GlcNAc(b1-2)Man
# How it was run: as §1
# [30] = target: Fuc(a1-2)Gal(b1-4)GlcNAc(b1-2)Man(a1-3)[Fuc(a1-2)Gal(b1-4)GlcNAc(b1-2)Man(a1-6)]Man(b1-4)GlcNAc(b1-4)GlcNAc
# How it was run: as §1
binder,measurement,setting,value
B1,glycan array binding signal (z-score),[1],-0.182
same,glycan array binding signal (z-score),[2],-0.205
same,glycan array binding signal (z-score),[3],-0.196
same,glycan array binding signal (z-score),[4],-0.16
same,glycan array binding signal (z-score),[5],-0.191
same,glycan array binding signal (z-score),[6],-0.184
same,glycan array binding signal (z-score),[7],-0.2
same,glycan array binding signal (z-score),[8],-0.191
same,glycan array binding signal (z-score),[9],-0.098
same,glycan array binding signal (z-score),[10],-0.159
same,glycan array binding signal (z-score),[11],-0.207
same,glycan array binding signal (z-score),[12],-0.199
same,glycan array binding signal (z-score),[13],-0.192
same,glycan array binding signal (z-score),[14],-0.165
same,glycan array binding signal (z-score),[15],-0.191
same,glycan array binding signal (z-score),[16],-0.185
same,glycan array binding signal (z-score),[17],-0.215
same,glycan array binding signal (z-score),[18],-0.163
same,glycan array binding signal (z-score),[19],-0.184
same,glycan array binding signal (z-score),[20],-0.074
same,glycan array binding signal (z-score),[21],-0.187
same,glycan array binding signal (z-score),[22],-0.17
same,glycan array binding signal (z-score),[23],-0.17
same,glycan array binding signal (z-score),[24],-0.17
same,glycan array binding signal (z-score),[25],0.116
same,glycan array binding signal (z-score),[26],-0.164
same,glycan array binding signal (z-score),[27],-0.194
same,glycan array binding signal (z-score),[28],-0.204
same,glycan array binding signal (z-score),[29],-0.203
same,glycan array binding signal (z-score),[30],0.702
